Experimental data reported in PMC4336329 (PLoS ONE, 2015).
Hit rate of the full screen: of about 310,000 compounds, about 2,200 (0.71%) showed an effect of 50% or more. Effects have a minus sign here. This is one part of the list.

What follows are compounds tested against human ether-à-go-go-related gene (hERG) potassium channel (human, UniProt Q12809) (assay: primary screen, population patch clamp on CHO cells stably expressing hERG).
human ether-à-go-go-related gene (hERG) potassium channel, sequence (Q12809 whole entry, looked up): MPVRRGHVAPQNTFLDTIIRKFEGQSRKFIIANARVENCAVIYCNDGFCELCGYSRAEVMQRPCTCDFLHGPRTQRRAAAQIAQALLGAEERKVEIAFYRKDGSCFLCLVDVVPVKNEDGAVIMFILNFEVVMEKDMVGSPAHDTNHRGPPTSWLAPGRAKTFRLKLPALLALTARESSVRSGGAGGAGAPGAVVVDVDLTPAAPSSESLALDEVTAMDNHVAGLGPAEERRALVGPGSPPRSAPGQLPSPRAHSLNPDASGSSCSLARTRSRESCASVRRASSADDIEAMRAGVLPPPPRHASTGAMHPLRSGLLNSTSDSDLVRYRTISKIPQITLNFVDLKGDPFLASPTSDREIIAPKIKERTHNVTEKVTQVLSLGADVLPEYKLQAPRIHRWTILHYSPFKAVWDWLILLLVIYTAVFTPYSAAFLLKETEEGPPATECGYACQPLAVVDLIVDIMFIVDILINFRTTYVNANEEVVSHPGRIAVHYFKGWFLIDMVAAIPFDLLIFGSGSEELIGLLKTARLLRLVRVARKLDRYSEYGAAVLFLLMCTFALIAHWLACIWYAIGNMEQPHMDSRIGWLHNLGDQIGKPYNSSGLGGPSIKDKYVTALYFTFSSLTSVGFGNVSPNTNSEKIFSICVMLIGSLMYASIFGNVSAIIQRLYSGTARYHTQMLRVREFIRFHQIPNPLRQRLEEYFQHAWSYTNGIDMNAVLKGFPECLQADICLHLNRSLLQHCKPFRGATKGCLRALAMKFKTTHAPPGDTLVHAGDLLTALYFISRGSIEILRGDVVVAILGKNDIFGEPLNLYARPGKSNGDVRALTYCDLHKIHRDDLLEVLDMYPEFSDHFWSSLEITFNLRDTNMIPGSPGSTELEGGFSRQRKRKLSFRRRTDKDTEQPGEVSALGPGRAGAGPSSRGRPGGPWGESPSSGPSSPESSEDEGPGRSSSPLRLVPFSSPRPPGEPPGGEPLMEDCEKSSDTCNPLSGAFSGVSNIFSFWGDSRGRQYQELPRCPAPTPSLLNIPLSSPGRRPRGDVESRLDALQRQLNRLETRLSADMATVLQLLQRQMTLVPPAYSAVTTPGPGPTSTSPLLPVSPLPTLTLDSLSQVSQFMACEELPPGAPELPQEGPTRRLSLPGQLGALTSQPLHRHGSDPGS

Row | Structure (SMILES) | hERG current change (%, negative = inhibition) at 1uM [%]
1 | O=C(/C=C/Nc1cccc(C(F)(F)F)c1)C(F)(F)F | 1.89
2 | COc1ccc2oc(=O)c(C(=O)Nc3ccccc3C)cc2c1 | 11.4
3 | Cc1cc2ncn(CCC(=O)NC(C)(C)C)c2cc1C | 8.99
4 | CC(C)(C)c1cc[n+](C2=C([O-])c3ccccc3C(=O)/C2=N\S(=O)(=O)c2ccccc2)cc1 | 9.02
5 | CCC(C)c1c(O)nc(SCC(=O)N2CCCCC2)[nH]c1=O (centres unmarked) | 12.6
6 | CCCC(=O)NNC(=O)CCC(=O)Nc1ccccc1Cl | 18.3
7 | CN1CCN(C(=O)c2ccccc2NC(=O)Cc2ccccc2)CC1 | -1.37
8 | CCOc1ccc(N/C=C/C(=O)c2ccc(OC)cc2)c([N+](=O)[O-])c1 | 19.1
9 | O=[N+]([O-])c1ccc(N2CCN(c3ccc(Cl)nn3)CC2)c(Cl)c1 | -9.29
10 | O=C(C1CCN(Cc2ccc(F)cc2)CC1)N(CCO)Cc1ccccc1 | 10.4
11 | Cc1cc(/C=N/NC(=O)c2ccc(O)cc2)c(C)n1C1CC1 | 19.7
12 | Cc1cc(C)c(OCC(=O)NCCCn2nc(C)cc2C)c(C)c1 | 6.92
13 | CCN(CC(=O)Nc1c(F)cccc1F)C(=O)C1(c2ccccc2)CC1 | -1.16
14 | O=C(CSc1ncccn1)NC(=O)c1ccccc1 | 13.3
15 | Cc1[nH]c2ccccc2c1/C=N/Nc1nc(N2CCCCC2)nc(N2CCCCC2)n1 | 9.92
16 | O=C(COC(=O)c1ccc(S(=O)(=O)N2CCCCC2)cc1)Nc1ccccc1 | 9.49
17 | c1ccc(C2=Nn3c(nnc3-c3n[nH]c4c3CCC4)SC2)cc1 | -10.2
18 | CN(C)S(=O)(=O)c1ccc(S(=O)(=O)N2CCN(CCC#N)CC2)cc1 | 2.89
19 | COc1ccc(C(C)=O)cc1CSc1nc2nc(C)cc(C)n2n1 | 0.532
20 | C=C1CCN([C@@H](CC(C)C)C(=O)Nc2nc3ccc(Cl)cc3s2)S(=O)(=O)c2ccccc21 | 7.6
21 | COc1ccc(CCNC(=O)c2cc(S(=O)(=O)N3CCC4(CC3)OCCO4)ccc2F)cc1OC | 8.01
22 | c1ccc(-c2ccccn2)nc1 | -1.1
23 | Cc1ccc2nc(N3CC(=O)Nc4ccccc43)nc(-c3ccccc3)c2c1 | 11.8

Row | Structure (SMILES) | hERG current change (%, negative = inhibition) at 1uM [%]
24 | CC(C)N1CCN(Cc2cccc(-n3cccn3)c2)CC1CCO (centres unmarked) | -7.17
25 | CC(NC(=O)Cn1cccc1C(=O)c1ccccc1)c1ccc2c(c1)OCCO2 (centres unmarked) | 13.9
26 | COCc1ccc(CN2CCc3c([nH]c4ccccc34)C2C(C)(C)C)o1 (centres unmarked) | 10
27 | CCCCNC(=O)CN1C(=O)NC(CCc2ccccc2)C1=O (centres unmarked) | 19.8
28 | CCOc1nc(-c2ccccc2)ccc1-c1noc(-c2cccnc2)n1 | 7.07
29 | CC(=O)N1CCN(S(=O)(=O)c2cccc(C(=O)N(Cc3ccccc3)c3ccc(C)cc3)c2)CC1 | 1.66
30 | COCC(C)NC(=O)C1CC(=O)N(c2ccc(C)cc2)C1 (centres unmarked) | 17.1
31 | Cn1c(=O)c2c(nc(N3CCN(c4ccccn4)CC3)n2Cc2ccc(Cl)cc2Cl)n(C)c1=O | 1.62
32 | O=C(NCCc1ccccn1)c1ccc(NS(=O)(=O)c2ccc(F)cc2)cc1 | 8.99
33 | CCN(CC(=O)Nc1c(F)cccc1F)C(=O)c1cc(-c2cccs2)nn1-c1ccccc1 | 1.08
34 | CCOC(=O)c1ccc(OCC(=O)c2ccc(O)cc2O)cc1 | -6.35
35 | COc1cc(/C=C2/C(=O)N=C(N)N2C)cc(OC)c1OC | 5.88
36 | CCN(C(=O)CSc1nnc(-c2ccncc2)n1Cc1ccccc1)C1CCS(=O)(=O)C1 (centres unmarked) | 1.66
37 | CC1CCCCN1C(=O)c1ccc(S(=O)(=O)N2CCCCC2C)cc1 (centres unmarked) | 3.05
38 | COc1ccc(NC(=O)CSc2nc(N)c(C(=O)Nc3ccc(N(C)C)cc3)s2)cc1 | 5.56
39 | CCCCNC(=S)N1CCn2cccc2C1c1ccccc1 (centres unmarked) | 12.9
40 | CC1CN(Cc2cn(C)nc2-c2ccc(Oc3ccccc3)cc2)CCN1C (centres unmarked) | -14.4
41 | COC(=O)c1cccc(/C=N/NC(N)=S)c1O | 8.31
42 | CCn1ncc(Cl)c1C(=O)Nc1ccc2c(c1)CCC2 | 14.5
43 | COc1ccc(-c2cc(C(F)(F)F)nc(N3CCCCC3)n2)cc1OC | 9.98
44 | Cc1cc(C)cc(C(=O)N2CCN=C2c2ccccc2)c1 | 13.2
45 | S=c1sc2c(N3CCOCC3)ncnc2n1-c1ccccc1 | -2.13
46 | COC(CNC(=O)C(=O)Nc1cc2c3c(c1)CC(=O)N3CCC2)OC | 22.4

Row | Structure (SMILES) | hERG current change (%, negative = inhibition) at 1uM [%]
47 | COc1ccc(OC)c(NC(=S)N2CCN(c3ccccn3)CC2)c1 | 8.1
48 | CC(=O)COc1ccccc1OC(=O)c1ccco1 | -1.08
49 | Cn1c(NC(=O)C(C)(C)Oc2ccc(Cl)cc2)cc(=O)n(C)c1=O | 4.49
50 | Cc1nnc(NC(=O)CSc2nnc(CC(=O)Nc3ccccc3Cl)n2C)s1 | 18.1
51 | O=C(COc1ccc(Br)cc1)NCc1ccccn1 | 3.98
52 | CN(Cc1ccccc1)C(=S)NC(=O)c1cccs1 | 11.3
53 | O=C(/C=C/c1ccc(Cl)cc1)Nc1ccccc1N1CCOCC1 | 10.4
54 | Cc1cc(=O)oc2cc(NS(=O)(=O)c3ccccc3)ccc12 | 15.6
55 | COc1ccc(C(=O)N/C(=C\c2cn(S(=O)(=O)N(C)C)c3ccccc23)C(=O)NCCN2CCOCC2)cc1OC | 6.52
56 | CC(C)C(NC(=O)c1ccccc1NC(=O)c1ccccc1)C(=O)NCCCn1ccnc1 (centres unmarked) | 14.1
57 | Cc1ccc(C)c(N2CC(C(=O)O)CC2=O)c1 (centres unmarked) | 6.38
58 | Cc1cc(C(F)(F)F)n(-c2nc(C(=O)NN)cs2)n1 | 0.755
59 | C=CCNC(=O)c1onc(CSc2cc(C)cc(C)c2)c1C(=O)NCC=C | 16.3
60 | Cc1nn(Cc2nnc(SCC(=O)Nc3ccc(Cl)cc3)n2C)c(C)c1[N+](=O)[O-] | -1.03
61 | O=C(CN1C(=O)NC(c2ccccc2)(c2ccccc2)C1=O)NCc1cccs1 | 10.1
62 | CC(C)CCNC(=S)Nc1ccccn1 | 3.6
63 | CCOC(=O)c1nnn(-c2nonc2OC)c1-c1ccccc1 | 6.57
64 | CCOc1ccc2nc(N(CCN(C)C)C(=O)c3ccc4c(c3)CCCC4)sc2c1.Cl | 0.706
65 | COc1ccc(C(=O)COC(=O)C(CCSC)NC(=O)COc2ccccc2)c(OC)c1 (centres unmarked) | 3.29
66 | Cc1cccc(Cn2c(=O)n(CCCC(=O)NCc3ccco3)c(=O)c3ccccc32)c1 | -4.67
67 | CCN(CC)c1ccc(S(=O)(=O)N2CCOCC2)cc1NC(=O)CSc1nncs1 | -2.21
68 | COc1cc(N2C(=O)c3ccccc3C2=O)c(Cl)cc1C(=O)OCC(=O)N(C)C | 6.05
69 | C#CCSc1nnnn1-c1ccc(Br)c(C)c1 | 8.02

Row | Structure (SMILES) | hERG current change (%, negative = inhibition) at 1uM [%]
70 | Cc1cc2ncn(-c3nnnn3-c3ccccc3)c2cc1C | 5.53
71 | Cc1ccc(S(=O)(=O)N(c2ccc(Br)cc2)C2C=CS(=O)(=O)C2)cc1 (centres unmarked) | 15.8
72 | Cc1ccc(N(CC(=O)N2CCN(c3ccccc3F)CC2)S(=O)(=O)c2c(C)noc2C)cc1 | 15.6
73 | CCC(=O)N1CCN(CCN=CC2=C(O)CC(c3cccs3)CC2=O)CC1 (centres unmarked) | 9.17
74 | O=C(Cc1ccccc1)Nc1nonc1NC(=O)c1ccccc1 | 11.3
75 | c1ccc(CSc2ncn(-c3ccccc3)n2)cc1 | 7.84
76 | O=C1CC(/C=C/c2ccc(Cl)cc2)=Nc2ccccc2N1 | 12.5
77 | CN1c2ccsc2/C(=N/NC(=O)c2c(F)cccc2F)CS1(=O)=O | 6.95
78 | CCSc1nnc(NC(=O)[C@@H](NC(=O)c2ccccc2)C(C)C)s1 | 16.7
79 | CCCCOc1ccc(/C(O)=C2/C(=O)C(=O)N(CCCOC)C2c2ccncc2)cc1 (centres unmarked) | 12.6
80 | Cc1cc(Nc2ccc(Cl)cc2)nc(N2CCOCC2)n1 | 15.7
81 | Cc1cc(C)c2nc(SC3CCOC3=O)cc(C)c2c1 (centres unmarked) | 6.67
82 | CC1Cc2ccccc2N1C(=O)CN1CCCCC1.Cl (centres unmarked) | 13.4
83 | Cl.Clc1ccc(C2=NNC(=NCC3CCCO3)SC2)cc1 (centres unmarked) | 11.2
84 | O/N=C(/CCc1ccccc1)c1ccc2c(c1)OCCO2 | 2.98
85 | CC(=O)N1CCN(C(=O)c2oc3ccccc3c2C)CC1 | 8.69
86 | O=C(COC(=O)c1ccccc1C(=O)c1ccc(Cl)cc1)NCCc1ccccc1 | 6.87
87 | Cn1c(CN2CCOCC2)nnc1SCc1ccc(C#N)cc1 | 13.1
88 | O=C(O)CSC1CC(=O)N(c2ccc(Cl)c(Cl)c2)C1=O (centres unmarked) | 11.7
89 | Cc1nn(C2CCS(=O)(=O)C2)c(Cl)c1/C=C/C(=O)OCC(=O)c1cc(C)n(-c2ccc(F)cc2)c1C (centres unmarked) | 6.45
